# Experimental data from PubChem BioAssay AID1508642 (National Center for Advancing Translational Sciences (NCATS), 2021).
# The whole screen tested about 43,000 compounds, of which about 200 (0.47%) were called active. Another 12% or so got no clear call; they are omitted. Calls come from the whole dose curve; as a rule, active = well fitted cell-killing curve with a large enough effect; inconclusive = small, poorly fitted or top-dose-only effect, or effect the other way; inactive = flat fitted curve, though single readings scatter. This is one part of the list.
# Assay: Cell viability qHTS assay in S16 Pmp22-F2sN cells; note: nearly all actives have a fitted effect of over 65% in size
# Settings: S16 Pmp22-F2sN Schwann cells viability, CellTiter-Glo, 24 h; series mostly up to 57.5 µM; activity change, negative = cytotoxicity: at the top concentration
# How it was run: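 Used to flag compounds lowering reporter output through toxicity, this quantitative HTS measures ATP-based CellTiter-Glo luminescence in S16 Pmp22-F2sN Schwann cells after 24 h compound exposure at 37C.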
# % is set by controls: 0 for no effect and ±100 for the full control effect.
row,SMILES,"activity change, negative = cytotoxicity"
1,CCOc1ccc(N2CC(NC(=O)C3CCCC3)CC2=O)cc1 (stereo unspecified),inactive: 13.5%
2,Cc1ccc(C)c(N2CCN(CCCNC(=O)c3ccc4nc(CCc5ccccc5)oc4c3)CC2)c1,inactive: 3.4%
3,Cc1cc(C)c2c(NC(=O)c3ccccc3)c(C(=O)Nc3ccc(F)cc3)sc2n1,inactive: -4.63%
4,COc1ccc(NC(=O)c2ccco2)cc1NC(=O)c1cc(OC)c(OC)c(OC)c1,inactive: 0.838%
5,COc1ccc(C(=O)c2sc(Nc3ccccc3)nc2N)cc1,inactive: 7.66%
6,CC(=O)c1cccc(NC(=O)CN(c2cc(C)cc(C)c2)S(=O)(=O)c2c(C)noc2C)c1,inactive: 0.448%
7,N#Cc1c(C(F)(F)F)cc(-c2cccs2)nc1SCC(=O)Nc1cccc(Cl)c1,inactive: 0.826%
8,O=C(Nc1ccccc1Cl)N1CCSc2ccccc21,inactive: 19.3%
9,CCOC(=O)Cn1c(=O)n(C2CCCCC2)c2nc(-c3c(F)cccc3Cl)nc(C(N)=O)c21,inactive: 6.69%
10,CC(C)CCn1c(/C=C/c2ccccc2)nc2ccccc21,inactive: -11%
11,Cc1cc(C)cc(NC(=O)CSc2nc3nccnc3c(=O)n2CCc2c[nH]c3ccccc23)c1,inactive: -10.9%
12,Cc1ccc(NC(=O)c2cnc3sc(N4CCOCC4)nn3c2=O)cc1N(C)C,inactive: 13.7%
13,COc1ccc(Nc2nc(C)nc(N)c2S(=O)(=O)c2ccccc2)cc1,inactive: -15.7%
14,O=C(c1ccc2c(c1)N(Cc1ccccc1)C(=O)c1ccccc1S2(=O)=O)N1CCN(Cc2ccccc2)CC1,inactive: -7.79%
15,Cc1cccc(NC(=O)Cn2c(=O)n(CCCCCC(=O)NCc3ccc4c(c3)OCO4)c(=O)c3sccc32)c1,inactive: -2.93%
16,COC(=O)c1scc(-c2ccc(C)cc2)c1S(=O)(=O)Nc1cc(C)ccc1OC,inactive: -4.5%
17,Nc1nn(-c2ccccc2)nc1C(=O)OCc1ccccc1,inactive: 5.4%
18,CC1CCCN(CCCNC(=O)Cn2ncc3c([nH]c4ccccc43)c2=O)C1 (stereo unspecified),inactive: 24%
19,CCCCn1c(=O)nc2n(-c3ccc(Br)cc3)c3ccccc3cc-2c1=O,inactive: 10.6%
20,CC(C)(C)C(=O)Nc1ccccc1C(=O)OCc1cc(=O)n2ccsc2n1,inactive: 0.296%
21,CCc1ccccc1-n1nnc(-c2nsc(NC(=O)c3ccc(C)c(C)c3)n2)c1C,inactive: -17.1%

row,SMILES,"activity change, negative = cytotoxicity"
1,Cc1ccc(-n2c(SCC(=O)N3CCCc4ccccc43)nc3c([nH]c4ccccc43)c2=O)cc1,inactive: -2.03%
2,COCCCNC(=O)CSC1=Nc2ccccc2C2=NC(CCC(=O)NCc3ccc(OC)cc3)C(=O)N12 (stereo unspecified),inactive: 10.7%
3,COc1cccc(C(=O)Nc2nc(-c3ccc(Br)cc3)ns2)c1,inactive: -6.28%
4,Cc1nc2ccc(S(=O)(=O)NCC(=O)Nc3ccc(F)cc3F)cc2s1,inactive: 8.62%
5,Cc1ccc(S(=O)(=O)N2CCN(Cc3nc4ccc(C)cc4o3)CC2)c(C)c1,inactive: -20.9%
6,Cc1ccc(-n2c(COCC(=O)O)nc3cccnc32)cc1,inactive: 1%
7,Cc1ccc(Cl)cc1N1CCN(C(=O)c2cc3c(=O)oc4ccccc4c3s2)CC1,inactive: 0.583%
8,CCN1CCN(C(c2ccccc2Cl)c2c(O)cc(C)n(CCOC)c2=O)CC1 (stereo unspecified),inactive: 5.14%
9,Cc1ccc(/C=C(\C#N)C(=O)Nc2cccc(Br)c2)o1,inactive: 6.79%
10,Fc1ccccc1N1CCN(c2nccn3nc(-c4ccc(Br)cc4)cc23)CC1,inactive: 2.15%
11,COc1ccc(CNC(=O)CS(=O)Cc2nc(-c3cccc(C)c3)oc2C)cc1 (stereo unspecified),inactive: 0.807%
12,Cc1ccccc1NC(=O)c1oc2c(c1C)-c1nn(Cc3cccc(Cl)c3)cc1CC2,inactive: -3.16%
13,Cc1ccc(S(=O)(=O)NCC2CCC(C(=O)NCCCOC(C)C)CC2)cc1 (stereo unspecified),inactive: -4.02%
14,CCCCN(CC)CCNC(=O)c1cc2c(=O)n(CC)c3ccccc3c2s1,inactive: 18.8%
15,CCCCNc1nc2ccccc2c2nc(-c3ccccc3)nn12,inactive: -6.17%
16,CC(C)(Oc1ccc(Br)cc1)C(=O)Nc1cc(-c2nc3ccccc3[nH]2)ccc1Cl,inactive: 0.0884%
17,O=C(CN1N=C(c2ccc(Cl)cc2)CCC1=O)NCCc1ccccc1,inactive: 16.8%
18,COc1ccccc1CNC(=O)CN1N=C(c2ccccc2)CCC1=O,inactive: -8.94%
19,Cc1ccc(NC(=O)Cn2nc(Cc3ccncc3)c3ccccc3c2=O)c(Cl)c1,inactive: 10.5%
20,COc1cc(C(=O)NCC(c2ccc(Cl)cc2)N2CCOCC2)cc(OC)c1OC (stereo unspecified),inactive: 0.597%
21,O=c1cc(-c2ccc(F)cc2)nc(SCc2nc(-c3ccc(Cl)cc3)no2)[nH]1,inactive: -1.81%

row,SMILES,"activity change, negative = cytotoxicity"
1,CCOC(=O)c1c(C)[nH]c(C)c1S(=O)(=O)NCC(=O)NCc1cccc(C)c1,inactive: -2.12%
2,CCOC(=O)c1ccc(CN(Cc2ccc(Br)cc2)S(=O)(=O)c2cccc(Cl)c2C)cc1,inactive: -1.13%
3,CC(=O)c1ccc(NC(=O)CSc2nc(=O)n(Cc3ccncc3)c3c2CCC3)cc1,inactive: 2.08%
4,CCS(=O)(=O)c1ncc(N(Cc2ccco2)Cc2ccccc2F)c(C(=O)Nc2cccc(Cl)c2)n1,inactive: 6.38%
5,O=C(Cn1c(=O)nc(-c2ccccc2)c2ccccc21)NCc1ccccc1Cl,inactive: 6.48%
6,Cc1ccc(N2CCN(C(=O)c3cn(C)c4ccc(S(=O)(=O)N(C)C)cc4c3=O)CC2C)cc1 (stereo unspecified),inactive: 6.34%
7,CCOC(=O)CC(NC(=O)Cn1nnc(-c2ccccc2F)n1)c1ccccc1Cl (stereo unspecified),inactive: 2.8%
8,CCc1ccc(C2C(C(=O)Nc3ccccc3C)=C(C)Nc3nc(SCc4cccc(OC)c4)nn32)cc1 (stereo unspecified),inactive: -3.01%
9,CC1CCCCN1CCCNC(=O)CN1C(=O)c2cccnc2Oc2ccccc21 (stereo unspecified),inactive: 17.2%
10,COc1ccccc1NC(=O)C1=C(C)Nc2c(C(=O)Nc3cccc(C)c3)cnn2C1c1ccccc1Cl (stereo unspecified),inactive: -3.62%
11,Cc1ccc(Cl)cc1NC(=O)CCCn1c(=O)c2cccn2c2cccnc21,inactive: 16.4%
12,Cc1ccccc1C(=O)N(Cc1sccc1C)C1CCS(=O)(=O)C1 (stereo unspecified),inactive: 2.11%
13,COc1ccc(CCNC(=O)c2ccc(Cn3c(=O)c4ccccc4n(CC(=O)C(C)(C)C)c3=O)cc2)cc1OC,inactive: 20%
14,COc1cc(NC(=O)CCn2nc(C)c(S(=O)(=O)N3CCCCC3)c2C)cc(OC)c1OC,inactive: -10.4%
15,COc1ccc(-c2nc3n(n2)C(c2ccc(OC)c(OC)c2)C(C(=O)Nc2cccnc2)=C(C)N3)cc1 (stereo unspecified),inactive: 3.45%
16,CCN1CCN(C(c2ccc(SC)cc2)c2c(O)cc(C)n(CCOC)c2=O)CC1 (stereo unspecified),inactive: 2.11%
17,CCCCN(CC)C(=O)C1CCCN(c2ncnc3onc(C)c23)C1 (stereo unspecified),inactive: -12%
18,O=c1oc2ccccc2c(N2CCN(c3ccccc3F)CC2)c1CN1CCCC1,inactive: 18.6%
19,Cc1ccc(S(=O)(=O)C(CNC(=O)C(=O)NCCc2ccccc2)c2cccs2)cc1 (stereo unspecified),inactive: -10.4%
